Hit rate of the full screen: of about 420,000 compounds, about 50,000 (12%) were called active. This list was built around the results that the source calls inconclusive (neither active nor inactive); the mix of calls is not that of the screen. Calls come from the whole dose curve; as a rule, active = well fitted inhibition curve with a large enough effect; inconclusive = small, poorly fitted or top-dose-only effect; inactive = flat fitted curve, though single readings scatter. Potencies of inconclusive entries are left out as doubtful fits.
test: qHTS for Inhibitors of human tyrosyl-DNA phosphodiesterase 1 (TDP1): qHTS in cells in presence of CPT; details: chicken DT40 Tdp1-/-;hTDP1 cells + 20 nM CPT, ATP luminescence, 48 h; activity change, negative = growth inhibition: at 46.2 µM (top of the series) unless noted; note: nearly all actives have a fitted effect of over 55% in size
Method in brief: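 Cell growth measured by CellTiter-Glo luminescence after a minimum 48 h, 37 C compound exposure with 20 nM CPT in Tdp1-knockout DT40 cells stably expressing hTDP1, seeded 400/well; qHTS titration format.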
% is set by controls: 0 for no effect and ±100 for the full control effect; potency is the fitted concentration of half-maximal effect; tags give direction and shape of the fitted curve.

**Q.** Which “activity change, negative = growth inhibition” value does the source give for `Cc1ccc(/C=C/C(=O)c2ccc(N3CCOCC3)cc2)s1` here?
**A.** inactive: -10.5%

**Q.** For `O=C(CN1C(=O)NC2(CCCC2)C1=O)OCc1ccc(Cl)cc1Cl`, which “activity change, negative = growth inhibition” value is on record?
**A.** inactive: -12.6%

**Q.** With `O=C(O)C1CCN(S(=O)(=O)c2ccc(Cl)s2)CC1` as the molecule, how does the “activity change, negative = growth inhibition” value read?
**A.** inactive: -4.54%

**Q.** Which Potency does the source give for `COc1ccc(NC(=O)c2cc(C3CC3)nc3c2c(C)nn3-c2ccccc2)cc1OC` here?
**A.** inconclusive [inhibitor, single point]

**Q.** For `C#CC[N+](CC)(CC)CC#Cc1cccc(Cl)c1`, which Potency is on record?
**A.** inconclusive [inhibitor, partial curve, poor fit]

**Q.** For `O=C(CSc1nc2ccccc2s1)Nc1ccc(Cl)c(C(=O)O)c1`, which “activity change, negative = growth inhibition” value is on record?
**A.** inactive: 25.8%

**Q.** Which Potency does the source give for `CN(C)C(=O)c1ccc(-c2nc(N3CCOCC3)c3ccccc3n2)cc1` here?
**A.** inconclusive [inhibitor, single point]

**Q.** With `COc1ccc(NC(=O)Nc2nnc(N(CC(C)C)CC(C)C)s2)c(OC)c1` as the molecule, how does the Potency read?
**A.** inconclusive [inhibitor, single point]

**Q.** With `Cc1noc2ncnc(Oc3ccccc3Cl)c12` as the molecule, how does the “activity change, negative = growth inhibition” value read?
**A.** inactive: -5.95%

**Q.** With `O=C(CSc1nnc(COc2ccccc2)o1)Nc1cc(C(F)(F)F)ccc1Cl` as the molecule, how does the “activity change, negative = growth inhibition” value read?
**A.** inactive: -23.8%

**Q.** With `COc1ccccc1CN(C)C(=O)CSc1nnc(C2CC2)n1C1CC1` as the molecule, how does the Potency read?
**A.** inconclusive [inhibitor, single point]

**Q.** Which Potency does the source give for `Cc1ccc(CNC(=O)Cn2cccc2C(=O)c2ccccc2C)cc1` here?
**A.** inconclusive [inhibitor, single point]

**Q.** Which “activity change, negative = growth inhibition” value does the source give for `O=C(CSc1n[nH]c(=O)n1-c1ccccc1)N1CCOCC1` here?
**A.** inactive: 2.37%

**Q.** Which Potency does the source give for `Cc1ccc2nc(C)cc(C(=O)N3CCCC(N4CCN(c5ccccc5C)CC4)C3)c2c1` (configuration not stated) here?
**A.** active: 14.6 µM

**Q.** For `CCCCN(C(=O)c1oc2ccc(OCC)cc2c1C)c1c(N)n(CCCC)c(=O)[nH]c1=O`, which “activity change, negative = growth inhibition” value is on record?
**A.** inactive: -13%

**Q.** For `Cc1cc(C)c(S(=O)(=O)Nc2ccc3[nH]c(=O)[nH]c3c2)c(C)c1`, which Potency is on record?
**A.** inconclusive [inhibitor, single point]

**Q.** For `Cc1ccc(NC(=O)c2c(NC(=O)C(F)(F)F)sc3c2CCCCC3)cc1`, which Potency is on record?
**A.** active: 2.59 µM

**Q.** For `COc1cccc(NC(=O)CN(C)C(=O)CN2C(=O)NC3(CCCC3)C2=O)c1`, which Potency is on record?
**A.** inconclusive [inhibitor, single point]

**Q.** With `O=C(Cn1c(-c2cccs2)cc2ccccc21)NCCCN1CCN(c2ccccc2F)CC1` as the molecule, how does the Potency read?
**A.** active: 23.1 µM

**Q.** With `O=C(CSc1nccn1Cc1ccccc1)Nc1ccc2c(c1)OCCO2` as the molecule, how does the “activity change, negative = growth inhibition” value read?
**A.** inactive: 7.55%

**Q.** For `O=c1[nH]c2ccc(Br)cc2c(=O)o1`, which Potency is on record?
**A.** inconclusive [inhibitor, single point]

**Q.** For `Cc1cc(C)cc(-n2c(SCC(=O)NC3CCCCC3)nc3c([nH]c4ccccc43)c2=O)c1`, which Potency is on record?
**A.** active: 16.4 µM

**Q.** Which Potency does the source give for `Cc1c(Cl)cccc1Nc1nn2c(=O)c3ccc(C(=O)N(C)Cc4ccccc4)cc3nc2s1` here?
**A.** inconclusive [inhibitor, partial curve]

**Q.** Which Potency does the source give for `COc1ccc(NC(=O)c2cc3c(C)nn(-c4ccccc4)c3s2)c(OC)c1` here?
**A.** inconclusive [inhibitor, partial curve]

**Q.** For `CC12CCC(C(=O)Nc3cccc(Cl)c3)(C(Br)C1=O)C2(C)C` (configuration not stated), which Potency is on record?
**A.** inconclusive [inhibitor, single point]

**Q.** With `Cc1ccc(NC(=O)CCS(=O)(=O)c2ccc3c(c2)oc(=O)n3C)c(Br)c1` as the molecule, how does the activity change, negative = growth inhibition read?
**A.** inconclusive: -31.7% [inhibitor]

**Q.** Which Potency does the source give for `S=C1NCN(C2CCCCC2)CN1CCc1ccccc1` here?
**A.** inconclusive [inhibitor, single point]

**Q.** With `COC(=O)[C@@]12C[C@@H](CC(=O)NCCCCc3ccccc3)C(=O)N(Cc3ccc4c(c3)OCO4)C1=CCC(C)(C)C2` as the molecule, how does the Potency read?
**A.** inconclusive [inhibitor, single point]

**Q.** For `O=C1C2CCCN2C(c2cccs2)N1c1ccc(Cl)cc1` (configuration not stated), which “activity change, negative = growth inhibition” value is on record?
**A.** inactive: -6.18%

**Q.** Which Potency does the source give for `COc1ccc(C2Nc3ccccc3C(=O)N2Cc2ccco2)cc1COc1c(C)cccc1C` (configuration not stated) here?
**A.** active: 2.51 µM

**Q.** Which “activity change, negative = growth inhibition” value does the source give for `Cc1cc(C(=O)N/N=C/c2ccc[nH]2)n[nH]1` here?
**A.** inactive: -4.72%

**Q.** With `CC(=O)Nc1ccc(S(=O)(=O)N2CCC(NC(=O)C(Cc3ccccc3F)NC(C)=O)CC2)cc1` (configuration not stated) as the molecule, how does the “activity change, negative = growth inhibition” value read?
**A.** inactive: 3.69%

**Q.** Which Potency does the source give for `COc1ccc(-c2nc(CSCC(=O)N3CCN(c4ccccc4)CC3)c(C)o2)cc1` here?
**A.** active: 10.3 µM

**Q.** Which Potency does the source give for `CC(Sc1n[nH]c(-c2ccccc2)n1)C(=O)c1c(N)n(C)c(=O)n(C)c1=O` (configuration not stated) here?
**A.** inconclusive [inhibitor, single point]

**Q.** With `COc1ccc(N2CCN(C(=O)CSCc3ccc(C)cc3)CC2)cc1` as the molecule, how does the Potency read?
**A.** active: 20.6 µM

**Q.** With `CC(=O)c1cccc(NS(=O)(=O)c2cccc(S(=O)(=O)c3ccc(Br)cc3)c2)c1` as the molecule, how does the Potency read?
**A.** inconclusive [inhibitor, single point]

**Q.** Which Potency does the source give for `COc1ccc(C(=O)Cn2c(NCCCO)nc3ccccc32)cc1` here?
**A.** inconclusive [inhibitor, single point]

**Q.** Which Potency does the source give for `CCOc1ccc(CCNC(=O)c2cccc(S(=O)(=O)N3CC(C)OC(C)C3)c2)cc1OCC` (configuration not stated) here?
**A.** inconclusive [inhibitor, single point]

**Q.** For `CCN(CC)CCN1C(=O)c2oc3ccccc3c(=O)c2C1c1cccc(Br)c1` (configuration not stated), which “activity change, negative = growth inhibition” value is on record?
**A.** inactive: -7.4%

**Q.** With `Cc1sc2ncnc(Oc3ccc(-n4ccnc4)cc3)c2c1C` as the molecule, how does the Potency read?
**A.** inconclusive [inhibitor, single point]

**Q.** For `COc1ccccc1S(=O)(=O)N1CCN(c2nc(-c3cccs3)nc3ccccc23)CC1`, which Potency is on record?
**A.** active: 10 µM

**Q.** Which “activity change, negative = growth inhibition” value does the source give for `O=C(Nc1ccc([N+](=O)[O-])cc1)N1CCN(C(=O)C2CCCO2)CC1` (configuration not stated) here?
**A.** inactive: 9.8%

**Q.** With `C[C@@H]1CCCCO[C@@H](CN(C)CC2CCCCC2)[C@@H](C)CN([C@H](C)CO)C(=O)c2cc(NS(=O)(=O)c3ccc(Cl)cc3)ccc2O1` as the molecule, how does the Potency read?
**A.** active: 16.4 µM

**Q.** Which Potency does the source give for `CCOc1cc(C(=O)N2CCN(c3ccccc3)CC2)cc(OCC)c1OCC` here?
**A.** inconclusive [inhibitor, partial curve]

**Q.** For `CCN(CC)C(=O)[C@H]1CC(CC(=O)NCCCOC)C(=O)N2CCc3c([nH]c4ccccc34)[C@]12C` (some centres not stated), which “activity change, negative = growth inhibition” value is on record?
**A.** inactive: -0.006%

**Q.** Which Potency does the source give for `Cc1cc2c(cc1S(=O)(=O)N1CCN(c3ccccc3)CC1)OCCN2C` here?
**A.** active: 7.31 µM

**Q.** Which Potency does the source give for `O=C(N/C(=C/c1cn(-c2ccccc2)nc1-c1ccccc1)C(=O)N1CCOCC1)c1ccc(Cl)cc1Cl` here?
**A.** inconclusive [inhibitor, single point]

**Q.** For `Cc1ccc(-c2nnc3sc(C4COc5ccccc5O4)nn23)cc1` (configuration not stated), which Potency is on record?
**A.** inconclusive [inhibitor, partial curve, poor fit]

**Q.** Which Potency does the source give for `O=C(NC(=S)NNC(=O)c1ccccc1F)c1cccnc1` here?
**A.** inconclusive [inhibitor, single point]

**Q.** Which “activity change, negative = growth inhibition” value does the source give for `O=C(/C=C/c1ccc(Cl)cc1)Nc1ccc(N2CCCCC2)cc1` here?
**A.** inactive: -13.1%

**Q.** With `Cc1ccccc1NP1(=O)OCCCN1Cc1ccccc1Cl` (configuration not stated) as the molecule, how does the “activity change, negative = growth inhibition” value read?
**A.** inactive: -29.4%

**Q.** For `CCCCNc1nnc(CCn2nc(C)c(Br)c2C)s1`, which Potency is on record?
**A.** inconclusive [inhibitor, partial curve, poor fit]

**Q.** With `CCOC(=O)N1CCN(C(=O)c2cc3c(=O)[nH]c4ccccc4c3s2)CC1` as the molecule, how does the Potency read?
**A.** inconclusive [inhibitor, single point]

**Q.** For `C=C(C)CSc1nc2sc3c(c2c(=O)n1-c1ccc(OC)cc1)CCN(C)C3`, which Potency is on record?
**A.** inconclusive [inhibitor, single point]

**Q.** Which Potency does the source give for `COc1cc(NC(=O)C(Cc2ccccc2)n2cccc2)cc(OC)c1` (configuration not stated) here?
**A.** inconclusive [inhibitor, partial curve, poor fit]

**Q.** With `O=C(COc1ccccc1)OCc1cc(=O)n2nc(-c3cccs3)sc2n1` as the molecule, how does the “activity change, negative = growth inhibition” value read?
**A.** inactive: -2.16%

**Q.** Which Potency does the source give for `CC(C)Cn1c(N)c(C(=O)COC(=O)c2ccccc2Cl)c(=O)n(C)c1=O` here?
**A.** inconclusive [inhibitor, partial curve]

**Q.** For `COCc1cc(N2CCOCC2)nc(-c2ccccc2)n1`, which Potency is on record?
**A.** active: 23.1 µM

**Q.** For `Clc1ccc(/C=N/NC2=Nc3cccc4cccc2c34)cc1`, which Potency is on record?
**A.** inconclusive [inhibitor, partial curve]

**Q.** With `c1ccc2c(CSCc3nc4ccccc4[nH]3)cccc2c1` as the molecule, how does the Potency read?
**A.** active: 16.4 µM

**Q.** For `CCc1nc(N2CCCC(C)C2)c2oc3ccccc3c2n1` (configuration not stated), which Potency is on record?
**A.** inconclusive [inhibitor, single point]

**Q.** For `Cc1ccc(S(=O)(=O)CCc2nnc(NC(=O)CCl)s2)cc1C`, which Potency is on record?
**A.** active: 14.6 µM

**Q.** For `Cc1cccc(C)c1NC(=O)CCCSc1nnc(-c2ccco2)o1`, which activity change, negative = growth inhibition is on record?
**A.** inconclusive: -31.2% [inhibitor]

**Q.** With `COc1ccc(NS(=O)(=O)c2ccc(C)c(C(=O)N(C)CCc3ccc(OC)c(OC)c3)c2)cc1` as the molecule, how does the Potency read?
**A.** inconclusive [inhibitor, single point]

**Q.** With `COc1ccc(CNC(=O)c2cnc3ccc(C)cn3c2=O)cc1` as the molecule, how does the “activity change, negative = growth inhibition” value read?
**A.** inactive: -0.621%

**Q.** With `CCOC(=O)N1CCN(C(=O)c2ccc3c(c2)N(Cc2ccc(C)cc2)CCS3)CC1` as the molecule, how does the Potency read?
**A.** inconclusive [inhibitor, single point]

**Q.** For `Cc1cc(C)n2nc(C(=O)N/N=C/c3c4ccccc4cc4ccccc34)nc2n1`, which Potency is on record?
**A.** active: 23.1 µM

**Q.** With `N#C/C(=C\c1ccc([N+](=O)[O-])o1)c1nc2ccccc2[nH]1` as the molecule, how does the Potency read?
**A.** active: 0.58 µM

**Q.** With `Cc1ccccc1-c1nnn(Cc2cccc(S(=O)(=O)N3CCOCC3)c2)n1` as the molecule, how does the Potency read?
**A.** inconclusive [inhibitor, single point]

**Q.** For `CC(C)C[C@@H](CN1CCCC1CN1C(=S)NC[C@@H]1Cc1ccccc1)N1C[C@H](Cc2ccccc2)N(CCc2ccccc2)C1=S` (some centres not stated), which Potency is on record?
**A.** inconclusive [inhibitor, single point]

**Q.** For `C=CCNc1nc2ccccc2c(=O)[nH]1`, which Potency is on record?
**A.** inconclusive [inhibitor, single point]

**Q.** For `Clc1ccc(C=NN2CCCCCC2)cc1`, which Potency is on record?
**A.** inconclusive [inhibitor, single point]
